# In PubChem BioAssay AID485294 (National Center for Advancing Translational Sciences (NCATS), 2010):
# Hit rate of the full screen: of about 370,000 compounds, about 150 (0.041%) were called active. Inconclusive means that the source gave no clear call. Such entries were picked first, then a sample of the others. Calls follow the shape of the dose curve; as a rule, active = well fitted inhibition curve with a large enough effect; inconclusive = small, poorly fitted or top-dose-only effect; inactive = flat fitted curve, though single readings scatter. No potency is given beside an inconclusive call; the fits are too rough.
# Target: Beta-lactamase (Escherichia coli (strain K12)) (UniProt P00811)
# Experiment: qHTS Inhibitors of AmpC Beta-Lactamase (assay with detergent); also: nearly all actives have a fitted effect of over 25% in size;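 as to activity change, negative = inhibition: 0% = no-compound wells and -100% = no-enzyme wells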
# Conditions: AmpC hydrolysis of nitrocefin, absorbance 480 nm, 0.01% Triton; activity change, negative = inhibition: at 114 µM (top of the series)
# Method in brief: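 20 mM phosphate pH 7.0 + 0.01% (detergent screen) or 0.0001% Triton X-100; 5.3 nM AmpC reagent; cpd preinc 15 min RT; nitrocefin (800 uM stock) to start; A480 q20 s × 4 min; Activity was normalised to no-enzyme and no-compound control wells.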
# Potency is read from the fitted curve at half-maximal effect; tags tell the direction and shape of the fitted curve.
# Sequence of UniProt P00811 (P00811 whole entry, looked up): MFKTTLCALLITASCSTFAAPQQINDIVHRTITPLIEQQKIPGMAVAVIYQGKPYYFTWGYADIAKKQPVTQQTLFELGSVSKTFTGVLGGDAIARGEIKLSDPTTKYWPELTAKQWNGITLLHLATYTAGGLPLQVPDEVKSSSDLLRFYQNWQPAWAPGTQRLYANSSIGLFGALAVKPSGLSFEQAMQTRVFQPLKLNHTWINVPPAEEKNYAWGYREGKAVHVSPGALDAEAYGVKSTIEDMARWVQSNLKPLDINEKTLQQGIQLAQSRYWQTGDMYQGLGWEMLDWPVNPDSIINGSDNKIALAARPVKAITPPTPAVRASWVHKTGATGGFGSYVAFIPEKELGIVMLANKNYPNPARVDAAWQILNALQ
Structure (SMILES),Potency,"activity change, negative = inhibition"
OCc1cc(-c2ccccn2)no1,"inconclusive [inhibitor, partial curve, poor fit]",–
CCOc1ncccc1C(=O)OCC(=O)NC(=O)NC(C)C,"inconclusive [inhibitor, full curve, poor fit]",–
Cc1ccnc(NC(=O)c2ccc(Cl)c(NC(=O)c3ccccc3C)c2)c1,–,inactive: 4.18%
CCOc1ccccc1N1CC(C(=O)Nc2ccccc2N2CCOCC2)CC1=O (stereo not drawn),"inconclusive [inhibitor, single point]",–
CCN(CC)CCOC(=O)c1ccc(NC(=O)c2cc3c(=O)n(CC)c4ccccc4c3s2)cc1,–,inactive: -12.2%
CCCNC(=O)CSc1nc2ccc(OCC)cc2s1,"inconclusive [inhibitor, single point]",–
CN(CC(=O)Nc1ccc(F)cc1)C(=O)CCc1nc2sc3c(c2c(=O)[nH]1)CCCC3,"inconclusive [inhibitor, full curve]",–
COc1ccc(/C=N/Nc2ncc(Br)cn2)c(OC)c1,–,inactive: 0.88%
COc1ccc(-c2nn(-c3ccccc3)cc2C(=O)O)cc1N,–,inactive: -25.9%
N#Cc1ccc(-c2cccs2)nc1SCC(=O)Nc1cccc(C(F)(F)F)c1,–,inactive: 1.02%
N#Cc1nc(-c2ccc(OCc3ccccc3)cc2)oc1NCc1ccco1,"inconclusive [inhibitor, full curve, poor fit]",–
COc1ccc(P2(=O)Nc3ccccc3N2)cc1,"inconclusive [inhibitor, full curve, poor fit]",–
Cc1ccc(Nc2ccc(NCc3ccccc3)nn2)cc1C,"inconclusive [inhibitor, partial curve, poor fit]",–
N#CC1=C(Nc2ccccc2)SC=C(c2ccc(F)cc2)N=C1N1CCOCC1,"inconclusive [inhibitor, single point]",–
O=C(O)C1Cc2ccccc2CN1S(=O)(=O)/C=C/c1ccccc1 (stereo not drawn),"inconclusive [inhibitor, partial curve]",–
OC1(CNCc2ccccc2)C2CC3CC(C2)CC1C3 (stereo not drawn),–,inactive: -1.04%
COc1ccc(-c2nc(SCC(=O)N3CCC(C)CC3)n[nH]2)cc1,–,inactive: 12.6%
COc1cc(OC)cc(C(=O)NC2CC3CCC(C2)N3Cc2ccco2)c1 (stereo not drawn),"inconclusive [inhibitor, full curve, poor fit]",–
COc1cc(/C=C/C(=O)OCC(=O)Nc2c(C)n(C)n(-c3ccccc3)c2=O)cc(OC)c1OC,"inconclusive [inhibitor, partial curve]",–
Cc1ccccc1-n1c(=O)cc(N2CCC3(CC2)OCCO3)[nH]c1=O,"inconclusive [inhibitor, full curve, poor fit]",–
CC(C)c1ccc(S(=O)(=O)N2CCN(C(=O)C3CC3C)CC2)cc1 (stereo not drawn),"inconclusive [inhibitor, partial curve, poor fit]",–
Cc1onc(C(=O)N2CCN(c3ccccc3F)CC2)c1-c1ccccc1Cl,"inconclusive [inhibitor, full curve, poor fit]",–

Structure (SMILES),Potency,"activity change, negative = inhibition"
Cc1ccc(S(=O)(=O)N2CCC3(CC2)OCCN3S(=O)(=O)c2c(C)cc(C)cc2C)cc1,–,inactive: -14.6%
CCCCc1nc2ccccc2n1Cc1nnc2n1-c1ccccc1SC2,"inconclusive [inhibitor, partial curve]",–
CC1(C)COC(c2cccn2Cc2ccc(F)cc2Cl)=N1,"inconclusive [inhibitor, single point]",–
Cc1nn(C)c(Nc2ccc(Br)cc2)c1Br,"inconclusive [inhibitor, single point]",–
CC(=O)Nc1ccc(C(=O)OCC(=O)N2CCCC2)cc1,"inconclusive [inhibitor, full curve, poor fit]",–
Clc1ccc(-c2nnc(CSc3nnc(-c4cccs4)n3Cc3ccccc3)o2)cc1,"inconclusive [inhibitor, full curve, poor fit]",–
CC1CCN(CCCNC(=O)C2CCN(S(=O)(=O)N3CCC4(CC3)OCCO4)CC2)CC1,"inconclusive [inhibitor, full curve]",–
CCOc1cc2c(cc1OCC)CN(C(=O)c1cccc(S(=O)(=O)N3CCCC3)c1)CC2,–,inactive: -1.56%
COc1ccc(CCNC(=O)C(=O)NCC2OCCN2S(=O)(=O)c2ccc(F)cc2)cc1 (stereo not drawn),"inconclusive [inhibitor, partial curve, poor fit]",–
Cc1ccc(S(=O)(=O)N2CCCC2CNC(=O)C(=O)Nc2ccc(F)cc2)cc1 (stereo not drawn),–,inactive: -5.52%
[O-][n+]1c2ccccc2cc2ccccc21,"inconclusive [inhibitor, single point]",–
COc1ccc(CN(C)CC2CCCN(CCc3ccc(Cl)cc3)C2)cc1OC (stereo not drawn),"inconclusive [inhibitor, full curve, poor fit]",–
CCN1C(=S)N[C@@H](c2cccc(F)c2)C(C(=O)OC)=C1C,"inconclusive [inhibitor, partial curve]",–
CCc1cccc(CC)c1NC(=S)NCC(c1cccnc1)N(C)C (stereo not drawn),"inconclusive [inhibitor, full curve, poor fit]",–
O=C(CN1CC(c2ccccc2)CC1=O)Nc1ccc2c(c1)OCO2 (stereo not drawn),"inconclusive [inhibitor, full curve, poor fit]",–
CSc1nc(C)cc(OCC#N)n1,"inconclusive [inhibitor, full curve, poor fit]",–
COc1ccc(S(=O)(=O)c2ccc(OC)c(OC)c2)cc1OC,"inconclusive [inhibitor, full curve]",–
Cc1noc(C)c1COc1ccc(C(=O)N2CCN(c3cccc(Cl)c3)CC2)cc1,"inconclusive [inhibitor, partial curve]",–
Cc1cc(C)c(C#N)c(Nc2ccc3c(c2)OCCO3)n1,"inconclusive [inhibitor, partial curve, poor fit]",–
CC(=O)NC/C(C)=N\Nc1ccc([N+](=O)[O-])cc1,–,inactive: 4.42%
S=c1nc(-c2sccc2OCc2ccc(Cl)cc2Cl)[nH][nH]1,"inconclusive [inhibitor, partial curve]",–
